This is an account of results in PubChem BioAssay AID360 (National Center for Advancing Translational Sciences (NCATS), 2006).

Hit rate of the full screen: of about 48,000 compounds, about 550 (1.1%) were called active. Another 4% or so got no clear call; they are omitted. Rule as the data show it: active = potency below about 15 µM; inconclusive = mostly about 16 µM to 33 µM; inactive = weaker than that. The list shows a part of the results. Bounds are passed on as bounds.
Potency is read from the fitted curve at half-maximal effect.

Sequence of UniProt P04062 (P04062 whole entry, looked up): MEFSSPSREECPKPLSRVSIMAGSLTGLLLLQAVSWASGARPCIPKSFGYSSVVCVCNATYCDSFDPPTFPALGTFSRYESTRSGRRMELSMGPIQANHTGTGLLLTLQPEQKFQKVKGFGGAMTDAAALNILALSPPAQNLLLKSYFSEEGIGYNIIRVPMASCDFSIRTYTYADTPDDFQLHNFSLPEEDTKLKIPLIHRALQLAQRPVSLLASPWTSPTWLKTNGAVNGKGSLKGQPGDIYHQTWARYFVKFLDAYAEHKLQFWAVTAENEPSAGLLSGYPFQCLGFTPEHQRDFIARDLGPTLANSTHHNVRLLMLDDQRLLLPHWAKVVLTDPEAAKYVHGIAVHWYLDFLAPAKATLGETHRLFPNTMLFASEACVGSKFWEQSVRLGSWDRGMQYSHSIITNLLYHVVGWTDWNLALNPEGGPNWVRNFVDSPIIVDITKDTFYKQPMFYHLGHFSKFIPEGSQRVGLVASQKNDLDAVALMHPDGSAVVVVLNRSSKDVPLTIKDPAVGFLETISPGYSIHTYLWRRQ

This experiment addresses Lysosomal acid glucosylceramidase (Homo sapiens) (UniProt P04062). The experiment in a line: Glucocerebrosidase.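 Also: the screen sought inhibitors.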 The note with it: purified enzyme, resorufin glucoside fluorescence (screen aimed at inhibitors), 20 min; series mostly up to 77 µM. The procedure, abridged:
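Wild-type enzyme at 0.2 nM final in 50mM citric acid/KH2PO4, 10mM sodium taurocholate, 0.01% tween-20, pH 5.9, with resorufin beta-D-glucopyranoside at 30 uM final. Compounds titrated, 20 min at RT, red fluorescence read; AC50 from titration.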
For the molecule `CCCCn1c(=O)c(C(=O)OCC)c(O)c2ccccc21`, the Potency was inactive: > 76.9 µM.
For `Cc1cc(C)c(S(=O)(=O)N(C)Cc2cnn(C)c2)c(C)c1`, the Potency is inactive: > 76.9 µM.
Consider `O=C(NCC(=O)N(Cc1cccs1)C(C(=O)NC1CCCC1)c1ccco1)c1cccs1` (configuration not stated), for which the Potency is inactive: > 76.9 µM.
Turning to `Cc1cnc(C(=O)Nc2ccccc2-n2cccc2)cn1`, the Potency was inactive: > 76.9 µM.
With `O=S(=O)(Nc1cccnc1)c1cccc(C(F)(F)F)c1`, the Potency is inactive: > 76.9 µM.
Consider `CCOC(=O)c1ccc(NC(=O)CCc2nc(-c3ccccc3Cl)no2)cc1`, for which the Potency is inactive: > 76.9 µM.
For `Cn1c2c(c3ccccc31)CCSC2=O` the value was inactive: > 76.9 µM; for `O=C(CSc1n[nH]c(-c2ccncc2)n1)Nc1ccccn1`, inactive: > 76.9 µM.
As for `O=C(Nc1ccc2c(c1)nc1n2CCCCC1)c1cc(S(=O)(=O)N2CCOCC2)ccc1Cl`, the entry is “inactive”; as for `CC(=O)c1ccc(OCC(O)CN(C)Cc2cccs2)cc1` (configuration not stated), inactive: > 76.9 µM.
For `CCn1c(CC(=O)Nc2ccccc2F)nnc1SCC(=O)N1CCN(c2ccccc2)CC1` the value was inactive: > 76.9 µM; for `CC(=O)Nc1cc2c(cc1C(=O)C(C)C)OCCO2`, inactive: > 76.9 µM.
With `CCOc1ccc(NCC2CCOC(C)(C)C2)cc1` (configuration not stated), the Potency is inactive: > 76.9 µM.
Regarding `CCN(CC)C(=O)CSc1nnc(-c2cc3ccccc3cc2O)n1CC`, the Potency is inactive: > 76.9 µM.
Consider `CCOc1cc(NC(=O)c2ccco2)c(OCC)cc1NC(=O)COc1ccccc1C`, for which the Potency is inactive: > 76.9 µM.
For `CCOC(=O)N1CCN(C(=O)c2nn(-c3cc(OC)cc(OC)c3)c(=O)c3ccccc23)CC1` the value was inactive: > 76.9 µM; for `COCc1cc(C)nc(SCC(=O)Nc2cccc(C)c2C)c1C#N`, inactive: > 76.9 µM; for `Cc1ccc(SCC(=O)N2CCOCC2)cc1`, inactive: > 76.9 µM.
For the molecule `COc1ccc(N2CCN(S(=O)(=O)c3ccc(C(=O)NCc4ccco4)cc3)CC2)cc1`, the Potency was inactive: > 76.9 µM.
For `O=C(CSc1nnc(CCCO)n1-c1ccccc1)Nc1nccs1` the value was inactive: > 76.9 µM; for `N#Cc1cccc(-c2cn(S(=O)(=O)c3ccc(Cl)cc3)nc2N)c1`, inactive: > 76.9 µM.
As for `Cc1ccc(CCNC(=O)C2CCN(S(=O)(=O)c3cccc4nonc34)CC2)cc1`, the figure is inactive: > 76.9 µM; as for `O=C(Nc1cccc(C(F)(F)F)c1)C1CCCN(S(=O)(=O)c2cnc[nH]2)C1` (configuration not stated), inactive: > 76.9 µM.
For `Cc1ccc(S(=O)(=O)N(C)CC(=O)OCc2nnc(-c3ccccc3)o2)cc1` the value was inactive: > 76.9 µM; for `C[C@H](NC(=O)C1(c2ccccc2)CCN(C(=O)[C@H]2CSCN2C(=O)OC(C)(C)C)CC1)C(=O)O`, inactive: > 76.9 µM; for `Cc1onc(-c2c(F)cccc2Cl)c1C(=O)N1CCCc2ccccc21`, inactive: > 76.9 µM.
Take `CC(=O)Nc1ccc(S(=O)(=O)N2CCN(C(=O)N3CCCCCC3)CC2)cc1`: the Potency is inactive: > 76.9 µM.
